Measured values as given in PubChem BioAssay AID624417 (National Center for Advancing Translational Sciences (NCATS), 2012).
Hit rate of the full screen: of about 410,000 compounds, about 6,400 (1.6%) were called active. The shares of active, inactive and inconclusive entries below differ from those in the screen. Calls follow the shape of the dose curve; as a rule, active = well fitted inhibition curve with a large enough effect; inconclusive = small, poorly fitted or top-dose-only effect; inactive = no such curve, though single readings can be large or run the other way. Potencies of inconclusive entries are left out as doubtful fits.

Biological target: Glucagon-like peptide 1 receptor (Homo sapiens) (UniProt P43220)
UniProt P43220, sequence (P43220 whole entry, looked up): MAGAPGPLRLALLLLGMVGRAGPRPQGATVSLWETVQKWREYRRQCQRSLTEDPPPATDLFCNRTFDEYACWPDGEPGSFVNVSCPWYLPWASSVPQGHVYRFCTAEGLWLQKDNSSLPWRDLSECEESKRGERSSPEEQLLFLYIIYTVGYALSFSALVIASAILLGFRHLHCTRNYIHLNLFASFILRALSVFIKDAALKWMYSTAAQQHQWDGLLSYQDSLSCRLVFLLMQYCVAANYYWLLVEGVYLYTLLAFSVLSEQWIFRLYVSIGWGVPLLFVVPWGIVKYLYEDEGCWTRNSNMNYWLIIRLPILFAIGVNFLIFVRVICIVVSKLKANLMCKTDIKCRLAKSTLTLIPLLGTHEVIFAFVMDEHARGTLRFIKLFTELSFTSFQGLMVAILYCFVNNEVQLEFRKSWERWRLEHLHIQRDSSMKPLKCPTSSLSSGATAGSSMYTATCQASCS
Experiment: qHTS of GLP-1 Receptor Inverse Agonists (Inhibition Mode); also: nearly all actives have a fitted effect of over 55% in size
Settings: HEK293 GLP-1R CRE-luciferase, luminescence, 24 h, GLP-1R form is constitutively active; series mostly up to 38.3 µM
Procedure, shortened: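 GLP-1R inverse agonism mode: basal reporter luminescence in engineered HEK293 cells measured after one day of compound exposure at 37 deg C, with a 12 min room-temperature detection step.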
Potency is read from the fitted curve at half-maximal effect; tags tell the direction and shape of the fitted curve.

| Compound | Potency |
| --- | --- |
| COc1ccc(CCNC(=O)CCS(=O)(=O)c2cc(Br)cc3c2N(C(C)=O)CC3)cc1OC | inactive |
| Cc1cc2c(c(=O)n1Cc1cccnc1)C(c1cccs1)C(C#N)=C(N)O2 (centres undefined) | inactive |
| O=C(Nc1ccc(-c2csc(Nc3ccccc3)n2)cc1)c1ccccc1 | inconclusive [inhibitor, full curve] |
| CC1Sc2ccc(C(=O)N(CCc3ccccc3)Cc3ccccc3)cc2NC1=O (centres undefined) | inconclusive [inhibitor, single point] |
| O=C(O)CSc1c2c(nc3cc(C(=O)Nc4cccc(C(F)(F)F)c4)ccc13)CCC2 | inconclusive [inhibitor, partial curve, poor fit] |
| Nc1c(C(=O)Nc2ccc(S(=O)(=O)N3CCCC3)cc2)sc2nc3ccc(OC(F)(F)F)cc3cc12 | inconclusive [inhibitor, partial curve, poor fit] |
| CCOC(=O)C1=C(C)N=c2s/c(=C\c3cccc(OCC(=O)O)c3)c(=O)n2C1c1ccccc1 (centres undefined) | inconclusive [inhibitor, single point] |
| COc1ccc(/C(C)=N/NC(=S)NCCc2ccccc2)c(O)c1 | active: 2 µM |
| CCCOc1ccc(-c2nonc2NC(=O)c2cc(OC)c(OC)c(OC)c2)cc1OCCC | inconclusive [inhibitor, partial curve, poor fit] |
| CCc1ccc(C2=NN(CCC(=O)NCCc3ccc(OC)c(OC)c3)C(=O)CC2)cc1 | inactive |
| O=c1c2c3c(sc2nc2n1CCCCC2)CCCC3 | inconclusive [inhibitor, single point] |
| COc1ccc(CNc2cc(C)nc3ccc(OC)cc23)cc1 | inconclusive [inhibitor, partial curve, poor fit] |
| O=C(c1cc2ccccc2oc1=O)N(Cc1cccs1)Cc1cccs1 | inconclusive [inhibitor, partial curve, poor fit] |
| Cc1cccc(C)c1C(O)c1ncc(-c2cccc3ccccc23)[nH]1 (centres undefined) | inconclusive [inhibitor, single point] |
| CCOC(=O)CN(C)Cc1cn(C)nc1-c1ccc(Oc2ccccc2)cc1 | inconclusive [inhibitor, partial curve] |
| CCN(CC)C(=O)N1c2ccccc2CC(N(CC)CC)c2ccccc21 (centres undefined) | inconclusive [inhibitor, partial curve, poor fit] |
| CCOC(=O)C1=CCN(S(=O)(=O)c2ccc(C)cc2)C1c1ccc(Cl)cc1 (centres undefined) | inconclusive [inhibitor, single point] |
| O=C(c1cc(-c2cccs2)nc2ccccc12)N1CCN(c2ccccc2)CC1 | inconclusive [inhibitor, partial curve, poor fit] |
| Cc1ccc(C)c(/C=N/NC(=S)NCCc2ccccc2)c1 | inconclusive [inhibitor, partial curve, poor fit] |
| Cc1ccc(Cn2ncc3c(N4CCN(Cc5ccc(Cl)cc5)CC4)ncnc32)cc1 | inconclusive [inhibitor, full curve, poor fit] |

| Compound | Potency |
| --- | --- |
| NC(=NC(=O)c1ccc(OCC(F)(F)F)nc1)c1ccc(Cl)cc1 | inconclusive [inhibitor, partial curve, poor fit] |
| Cc1cc2cc(CNC(=S)Nc3ccc(OC(F)F)cc3)ccc2n1C | inconclusive [inhibitor, single point] |
| CCOc1ccc(C(=O)OC2CCN(C)CC2)cc1 | active: 3.98 µM |
| CC(=O)OC1c2c(ccc3ccc(=O)oc23)OC(C)(C)C1OC(=O)CC(C)C (centres undefined) | inconclusive [inhibitor, single point] |
| CCCCc1ncc(CN2CCN(Cc3ccc(C)cc3)C(CCO)C2)[nH]1 (centres undefined) | inconclusive [inhibitor, single point] |
| CCOC(=O)C1(C)C(=O)CC2c3nc4ccccc4cc3CN2C1=O (centres undefined) | inconclusive [inhibitor, single point] |
| CC1=C(C(=O)N2CCCCCC2)CC(CC(=O)NC(c2ccccc2)c2ccccc2)C(=O)N1Cc1ccccc1 (centres undefined) | inconclusive [inhibitor, single point] |
| CC(=O)c1ccc(NC(=S)N(Cc2ccccc2)C(C)C2CC2)cc1 (centres undefined) | inconclusive [inhibitor, single point] |
| COc1ccc(OCCCC(=O)N2CCN(S(=O)(=O)c3cccc(F)c3)CC2)cc1 | inconclusive [inhibitor, full curve] |
| O=S(=O)(Cc1ccc(Cl)cc1)N1CCCCCC1 | inconclusive [inhibitor, partial curve, poor fit] |
| Cn1c(=O)oc2cc(S(=O)(=O)NCCN3CCCCCC3)ccc21 | inactive |
| COc1cccc(/C=C2\SC(=O)N(CC(=O)NC3C=CS(=O)(=O)C3)C2=O)c1 (centres undefined) | inconclusive [inhibitor, single point] |
| O=C(NCC1CCCCC1)c1cc(-c2cc(F)ccc2OCC2CCCO2)n[nH]1 (centres undefined) | inconclusive [inhibitor, single point] |
| O=C(/C=C/c1cccs1)c1ccc(N2CCOCC2)cc1 | inconclusive [inhibitor, single point] |
| O=C(CCCN1CCC(C(=O)c2ccc(F)cc2)CC1)c1ccc(F)cc1 | inactive |
| Cc1ccc(C)c(CN2C(=O)c3ccccc3S(=O)c3ccc(C(=O)N4CCN(c5cccc(Cl)c5)CC4)cc32)c1 (centres undefined) | inconclusive [inhibitor, partial curve, poor fit] |
| c1ccc(Nc2nc(-c3cccs3)cs2)nc1 | inconclusive [inhibitor, single point] |
| COc1ccccc1N1C(C)=CC(=C(C#N)c2nc3ccccc3s2)C=C1C | inconclusive [inhibitor, partial curve, poor fit] |
| CCCN1Cc2cccc(C(=O)NCCc3cccc(C)c3)c2C1=O | inconclusive [inhibitor, single point] |
